Drawing on a collection of fitness landscapes (doi:10.1126/science.1257360), this text covers enrichment ratio for 84 variants.

The other results are listed elsewhere or left out.

B1: PhoQ; a variant is named by its letters at X, in order, P23837 (parent)
chain: MKKLLRLFFPLSLRVRFLLATAAVVLVLSLAYGMVALIGYSVSFDKTTFRLLRGESNLFYTLAKWENNKLHVELPENIDKQSPTMTLIYDENGQLLWAQRDVPWLMKMIQPDWLKSNGFHEIEADVNDTSLLLSGDHSIQQQLQEVREDDDDAEMTHSVAVNVYPATSRMPKLTIVVVDTIPVELKSSYMVWSWFIYVLSANLLLVIPLLWVAAWWSLRPIEALAKEVRELEEHNRELLNPATTRELTSLVRNLNRLLKSERERYDKYRTTLTDLTHSLKTPLXXLQXXLRSLRSEKMSVSDAEPVMLEQISRISQQIGYYLHRASMRGGTLLSRELHPVAPLLDNLTSALNKVYQRKGVNISLDISPEISFVGEQNDFVEVMGNVLDNACKYCLEFVEISARQTDEHLYIVVEDDGPGIPLSKREVIFDRGQRVDTLRPGQGVGLAVAREITEQYEGKIVAGESMLGGARMEVIFGRQHSAPKDE

This assay covers variants of B1. Description: enrichment ratio after two sorts for PhoP signalling (ratio (wild type AVST 3.29)); higher = more functional. To be noted: with PhoP (E. coli).
In the case of PIRF, the enrichment ratio was at most 0.25.
With TVED, the enrichment ratio was at most 0.25.
With TSRE, the enrichment ratio is at most 0.25.
As for QGLC, the enrichment ratio was 15.9.
For ECDN, the enrichment ratio was at most 0.25.
With TKKP, the enrichment ratio was at most 0.25.
On to ENWF, for which the enrichment ratio was at most 0.25.
Under NYMY stands at most 0.25; under TLQV, 10.2; under DANP, at most 0.25.
With HFHR, the enrichment ratio is at most 0.25.
Regarding ICAS, the enrichment ratio was at most 0.25.
Under VMWI stands at most 0.25; under CKIQ, at most 0.25.
As to MQLA, the enrichment ratio is at most 0.25.
Turning to MTTS, the enrichment ratio is at most 0.25.
Consider PNNW, for which the enrichment ratio is at most 0.25.
Regarding DMLQ, the enrichment ratio is at most 0.25.
QAYY: the enrichment ratio worked out at 10.3.
On to HHDG, for which the enrichment ratio is at most 0.25.
Under VLRA stands at most 0.25; under MTCF, 1.4.
DWLQ: the enrichment ratio was at most 0.25.
As for AGRM, the enrichment ratio is at most 0.25.
Turning to AMMR, the enrichment ratio was 5.86.
On to KATG, for which the enrichment ratio is at most 0.25.
To VGGV belongs at most 0.25; to WMCE, at most 0.25; to TCFT, at most 0.25.
SAPM: the enrichment ratio was 2.5.
Turning to GCAF, the enrichment ratio came out at 0.687.
For ENPV, the enrichment ratio is at most 0.25.
To WCKH belongs at most 0.25; to IVCK, at most 0.25.
In the case of HLCW, the enrichment ratio was at most 0.25.
For the variant HHSI, the enrichment ratio is at most 0.25.
Consider WIDP, for which the enrichment ratio was at most 0.25.
In the case of RVIW, the enrichment ratio is at most 0.25.
Consider AASI, for which the enrichment ratio was 10.4.
Under GDCL stands 1.54; under FADM, at most 0.25; under ETHP, at most 0.25.
In the case of TMMN, the enrichment ratio amounted to 11.5.
YFDR: the enrichment ratio is at most 0.25.
TLEE: the enrichment ratio worked out at 3.87.
Under LIYH stands at most 0.25; under LPMK, at most 0.25; under IFMC, at most 0.25.
Take MMDE: the enrichment ratio is at most 0.25.
Take ETGC: the enrichment ratio is at most 0.25.
As for QNDL, the enrichment ratio was at most 0.25.
Turning to WTVV, the enrichment ratio was at most 0.25.
As for TVCK, the enrichment ratio amounted to 1.72.
In the case of PMAC, the enrichment ratio was at most 0.25.
To TFFG belongs at most 0.25.
As to MYTQ, the enrichment ratio was at most 0.25.
VNYR: the enrichment ratio was at most 0.25.
Under KLLR stands at most 0.25; under YQHG, at most 0.25; under STVW, 2.42.
Under TMGK stands at most 0.25; under QMIL, at most 0.25.
On to GEFL, for which the enrichment ratio was at most 0.25.
Under PSHF stands at most 0.25; under KDIA, at most 0.25.
Under FDDL stands at most 0.25; under SWVC, at most 0.25.
As to DGGM, the enrichment ratio is at most 0.25.
Take GSNA: the enrichment ratio is at most 0.25.
For DCAS, the enrichment ratio was at most 0.25.
Regarding GKFD, the enrichment ratio was 2.13.
As for SVLE, the enrichment ratio worked out at 1.71.
Turning to SYCN, the enrichment ratio was at most 0.25.
To GGYQ belongs at most 0.25; to FERV, at most 0.25; to NHHY, at most 0.25.
With KCGP, the enrichment ratio is at most 0.25.
To IWPN belongs at most 0.25; to QDCQ, at most 0.25; to RDTF, at most 0.25.
To EVPY belongs at most 0.25.
Under FKRH stands at most 0.25; under GNEF, at most 0.25; under WHHR, at most 0.25.
